Target: Dnmt3a2 (residues 421–908; pXC531), ΔPWWP (mouse, UniProt O88508 fragment)
Experiment: co-purification of the complex over two affinity columns

- binding result: binds
B1: Dnmt3b3 ([…]; pXC1032), ΔPWWP (domain or fragment)
chain: not shown

— article PMC7608744 (Genes & Development, 2020)
